The results in this text go back to paper PMC4336329 (PLoS ONE, 2015).

Each structure is given as a SMILES string. Hit rate of the full screen: of about 310,000 compounds, about 14,000 (4.5%) showed an effect of 50% or more. The effect is printed as a negative number. This is one part of the list.
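Further: peak tail current of the secondary pulse compared with the same well before compound.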

Sequence of human ether-à-go-go-related gene (hERG) potassium channel (Q12809 whole entry, looked up): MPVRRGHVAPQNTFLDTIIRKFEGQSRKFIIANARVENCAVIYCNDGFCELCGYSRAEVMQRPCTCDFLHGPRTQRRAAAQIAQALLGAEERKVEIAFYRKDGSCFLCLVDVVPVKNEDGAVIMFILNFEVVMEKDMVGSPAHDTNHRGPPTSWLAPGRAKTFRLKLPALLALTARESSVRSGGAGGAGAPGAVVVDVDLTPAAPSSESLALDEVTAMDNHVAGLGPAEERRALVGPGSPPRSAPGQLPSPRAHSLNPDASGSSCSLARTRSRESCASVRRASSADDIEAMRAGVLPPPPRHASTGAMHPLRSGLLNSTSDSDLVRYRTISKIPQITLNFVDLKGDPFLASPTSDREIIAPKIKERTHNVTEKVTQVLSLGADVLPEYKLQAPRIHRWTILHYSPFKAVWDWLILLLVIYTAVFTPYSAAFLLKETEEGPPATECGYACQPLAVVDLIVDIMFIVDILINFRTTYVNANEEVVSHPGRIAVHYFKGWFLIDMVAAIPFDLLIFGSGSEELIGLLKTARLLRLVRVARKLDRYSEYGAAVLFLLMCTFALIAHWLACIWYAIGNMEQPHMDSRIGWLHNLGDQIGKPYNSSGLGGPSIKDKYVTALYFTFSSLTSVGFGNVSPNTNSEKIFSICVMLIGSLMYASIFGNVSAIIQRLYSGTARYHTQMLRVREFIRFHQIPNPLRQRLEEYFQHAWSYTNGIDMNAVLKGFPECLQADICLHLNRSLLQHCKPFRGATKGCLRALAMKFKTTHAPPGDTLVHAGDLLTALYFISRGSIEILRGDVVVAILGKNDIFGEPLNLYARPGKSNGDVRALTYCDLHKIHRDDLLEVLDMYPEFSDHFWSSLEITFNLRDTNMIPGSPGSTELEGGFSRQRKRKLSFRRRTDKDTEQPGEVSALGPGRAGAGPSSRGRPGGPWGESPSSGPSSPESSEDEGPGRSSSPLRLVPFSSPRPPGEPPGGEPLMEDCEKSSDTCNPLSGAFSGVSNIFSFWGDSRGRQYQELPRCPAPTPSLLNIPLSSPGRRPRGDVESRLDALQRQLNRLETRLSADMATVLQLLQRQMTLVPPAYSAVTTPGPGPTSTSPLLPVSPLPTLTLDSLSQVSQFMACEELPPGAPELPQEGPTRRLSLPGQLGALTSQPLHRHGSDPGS

This assay addresses human ether-à-go-go-related gene (hERG) potassium channel (human, UniProt Q12809). Put plainly: primary screen, population patch clamp on CHO cells stably expressing hERG.
With `CCN(c1ccccc1)S(=O)(=O)c1csc(C(N)=O)c1`, the “hERG current change (%, negative = inhibition) at 10uM” value is on record as 1.38%.
Under `COCCn1c(-c2ccc(OC)cc2)cnc1SCC(=O)Nc1cc(C)on1` stands 2.53%; under `COCCn1c(COc2cccc(OC)c2)nnc1SCC(=O)N1CCOCC1`, 13.5%.
As to `C[n+]1ccc(/C=C/c2ccccc2O)c2ccccc21.[I-]`, the “hERG current change (%, negative = inhibition) at 10uM” value was 2.43%.
To `CCCc1cc(C(=O)Nc2ccc(Cl)cn2)cs1` belongs 3.15%; to `COc1c(C)cc(C(=O)C2CCCN(C(=O)c3cc(C)n(C)n3)C2)cc1C` (stereo not drawn), -20.4%.
For `CN1CCC(N(C)S(=O)(=O)c2ccc(Cl)cc2)CC1`, the “hERG current change (%, negative = inhibition) at 10uM” value is recorded as -15.6%.
With `COc1ccc(NC(=O)NCCc2cccc(Cl)c2)cc1OC`, the “hERG current change (%, negative = inhibition) at 10uM” value was 12.9%.
Turning to `O=C(NCc1ccc2c(c1)OCO2)c1nc(Cn2cc(Br)cn2)no1`, the “hERG current change (%, negative = inhibition) at 10uM” value is -8.87%.
In the case of `CCCCCC(=O)Nc1cccc(C2=NOC3(C2)C[C@@H](C(N)=O)N(C(=O)CC(c2ccccc2)c2ccccc2)C3)c1` (stereo partly drawn), the “hERG current change (%, negative = inhibition) at 10uM” value was -6.08%.
Under `CCN(CC)c1ccc(C(=O)OCC(=O)N2CCN(c3ccccc3)CC2)cc1` stands 7.62%; under `O=C1/C(=C/c2ccsc2)N2CCC1CC2`, 6.29%; under `COC(=O)/C(C#N)=C1/C=Cc2ccccc2N1C`, -2.99%.
Take `CC1=C(C(=O)N2CCOCC2)C(c2cccc(C)c2)NC(=S)N1` (stereo not drawn): the “hERG current change (%, negative = inhibition) at 10uM” value is given as 10.7%.
To `CN(C(=O)c1coc(=O)c2ccccc12)c1ccccc1Cl` belongs -8.76%; to `CC(/C=N/N1C(=O)CSC1=S)=C\c1ccccc1`, 17.5%; to `O=C(CN1CCN(S(=O)(=O)/C=C/c2ccccc2)CC1)NCC(F)(F)F`, -7.5%.
With `Cc1cc(C)cc(N=Cc2ccc([N+](=O)[O-])s2)c1`, the “hERG current change (%, negative = inhibition) at 10uM” value is listed as 2.51%.
Under `O=C(NCC(c1ccco1)N1CCN(c2ccc(F)cc2)CC1)c1ccco1` (stereo not drawn) stands -25.7%.
Consider `Cc1nc2c(C#N)c[nH]n2c(=O)c1Cc1ccccc1`, for which the “hERG current change (%, negative = inhibition) at 10uM” value is 1.48%.
To `COc1ccccc1C(NC(=O)CC(C)C)c1c(O)ccc2ccccc12` (stereo not drawn) belongs 18.7%.
In the case of `CCOCCCNC(=O)/C(C#N)=C/c1ccc([N+](=O)[O-])o1`, the “hERG current change (%, negative = inhibition) at 10uM” value is recorded as 12.7%.
Under `CCC(=O)N1CCc2cc(-c3csc(NC(=O)c4ccco4)n3)ccc21` stands 19.9%.
On to `CCCCC(=O)Nc1cc(OC)c(NC(=O)C2CCCCC2)cc1OC`, for which the “hERG current change (%, negative = inhibition) at 10uM” value is listed as 11.5%.
With `COc1ccc2nc(NC(C)=O)sc2c1`, the “hERG current change (%, negative = inhibition) at 10uM” value is reported as -4.83%.
For `O=C(NNS(=O)(=O)c1cc(Cl)c(Cl)cc1Cl)c1cccnc1`, the “hERG current change (%, negative = inhibition) at 10uM” value was -1.53%.
`C=CCn1c(O)c(CN2CCN(Cc3ccccc3)CC2)c(C)c(C#N)c1=O`: the “hERG current change (%, negative = inhibition) at 10uM” value worked out at 4.17%.
Under `O=C(NCC1CCCO1)C1CCCN(S(=O)(=O)c2cccc3nsnc23)C1` (stereo not drawn) stands -0.558%; under `COC(=O)CC1C(=O)NCCN1C(=O)CSc1nnc(Nc2ccc(C)cc2)s1` (stereo not drawn), 3.19%; under `Nc1nc(NCc2ccco2)nn1-c1ccccc1`, 12%.
`C/C(=N/NC(=O)c1sc(NS(=O)(=O)c2ccccc2)nc1C)c1ccc(F)cc1`: the “hERG current change (%, negative = inhibition) at 10uM” value amounted to 8.9%.
For the molecule `COc1ccccc1N(CC(=O)NCCC1=CCCCC1)S(=O)(=O)c1ccccc1`, the “hERG current change (%, negative = inhibition) at 10uM” value is recorded as -14.5%.
Under `CNS(=O)(=O)c1cccc(C(=O)OCCCC(=O)c2ccccc2)c1` stands -36.3%.
To `CS(=O)(=O)N1CCc2cc(S(=O)(=O)Nc3ccc4oc5c(c4c3)CCCC5)ccc21` belongs 3.08%; to `O=C(COc1ccccc1)N1CCN(CC2CC=CCC2)CC1.O=C(O)C(=O)O` (stereo not drawn), -38.6%; to `COCCN(C(=O)CNC(=O)c1cccs1)C(C(=O)NC1CCCCC1)c1ccco1` (stereo not drawn), -14.9%.
To `Cc1cc2c(=O)n(C)c(SCC(=O)c3cc4ccccc4o3)nc2s1` belongs 11.1%; to `COc1ccc(-c2nnc(NC(=O)Cc3ccccc3)s2)c(OC)c1`, 17.5%; to `CCn1c(N2CCN(C(=S)NC)CC2)nc2ccccc21`, -30.2%.
In the case of `COc1ccc(N2CC(C(=O)NCCC3=CCCCC3)CC2=O)c(OC)c1` (stereo not drawn), the “hERG current change (%, negative = inhibition) at 10uM” value is listed as -4.67%.
Regarding `Cc1ccc(Nc2nnc(SCc3cc(=O)n4ccsc4n3)s2)c(C)c1`, the “hERG current change (%, negative = inhibition) at 10uM” value is -34.1%.
To `O=C(/C(=C/O)N=Nc1cccc(C(F)(F)F)c1)c1ccccc1` belongs 16.3%; to `O=C(CSc1nncs1)NC(=O)Nc1ccc2c(c1)OCCO2`, -6.17%; to `CC1(c2ccc(Cl)cc2)NC(=O)N(CC(=O)Nc2cccnc2Cl)C1=O` (stereo not drawn), -0.919%.
`CCOc1ccc(Br)cc1S(=O)(=O)Nc1cccc(S(=O)(=O)N(C)C)c1`: the “hERG current change (%, negative = inhibition) at 10uM” value is reported as -23.6%.
In the case of `CC(c1ccccc1)n1c(Cn2ncc3ccccc3c2=O)n[nH]c1=S` (stereo not drawn), the “hERG current change (%, negative = inhibition) at 10uM” value came to 10.9%.
To `COc1ccc(OC)c(N)c1.Cl` belongs 20.5%.
To `CCOc1ccc2cc(/C=C/C(=O)c3ccco3)c(Cl)nc2c1` belongs 20.1%; to `COC(=O)CCCCCCCCCC[N+]1(C)CCCCC1.[I-]`, -0.248%.
To `CCOC(=O)Nc1ccc2c(c1)nc1n2CCN(CCOC)C1` belongs 19.9%; to `Cc1nc(N)c(C#N)c(-c2ccc3c(c2)OCO3)c1C`, 20.7%.
Regarding `O=C(COC(=O)/C=C/c1ccccc1)Nc1ccc(Cl)cn1`, the “hERG current change (%, negative = inhibition) at 10uM” value is on record as 46.7%.
For the molecule `Cc1c(-c2ccccc2)[n+](=O)c(-c2ccco2)c(C)n1[O-]`, the “hERG current change (%, negative = inhibition) at 10uM” value came out at 7.02%.
For `CCn1c(=O)c(C(=O)Nn2c(C)nc3ccccc3c2=O)c(O)c2ccccc21`, the “hERG current change (%, negative = inhibition) at 10uM” value is listed as -18.4%.
`CCC(CC)C(=O)c1c[nH]c(C(=O)NCc2ccccn2)c1`: the “hERG current change (%, negative = inhibition) at 10uM” value is listed as -1.16%.
For the molecule `O=C(NC1CCCC1)C(c1ccncc1)N(CCCN1CCOCC1)C(=O)c1ccc(-c2ccccc2)[nH]1` (stereo not drawn), the “hERG current change (%, negative = inhibition) at 10uM” value is recorded as -61.1%.
In the case of `CC(=O)N(O)CCCCCNC(=O)CCC(=O)N(O)CCCCCNC(=O)CCC(=O)N(O)CCCCCN.CS(=O)(=O)O`, the “hERG current change (%, negative = inhibition) at 10uM” value was found to be 13.5%.
As for `Cc1ccc(/C=C/C(=O)N2CCCC(C)C2)cc1` (stereo not drawn), the “hERG current change (%, negative = inhibition) at 10uM” value is -8.25%.
For `O=Nc1ccc(NOC(=O)c2ccccc2Br)cc1`, the “hERG current change (%, negative = inhibition) at 10uM” value is on record as 3.45%.
To `O=C1/C(=C\c2ccc(Br)o2)SC(=Nc2ccccc2)N1c1ccccc1` belongs -10.1%.
Under `CCOc1ccc(-n2ccnc2)nn1` stands -0.284%; under `O=C(NCc1ccc2c(c1)OCO2)c1ccc(CS(=O)(=O)Cc2cccc(Cl)c2)o1`, 5.36%.
As for `CCC(=O)Nc1c2c(nn1-c1ccc(C)cc1C)CSC2`, the “hERG current change (%, negative = inhibition) at 10uM” value was -1.3%.
To `COc1cccc(NC(=O)CSCC(=O)Nc2ccccc2)c1` belongs -0.86%; to `CCc1cccc(CC)c1-n1c(SCC(=O)c2c(N)n(C)c(=O)n(C)c2=O)nnc1-c1cccnc1`, -2.55%; to `CCOc1c(Br)cc(/C=C2\N=C(C)OC2=O)cc1Br`, 12.1%.
To `CCC(C)(C)n1nnnc1C(c1ccc(F)cc1)N1CCN(C(=O)c2ccco2)CC1` (stereo not drawn) belongs -41.9%.
Under `CN1CCCC(C(O)(c2ccccc2)c2ccccc2)C1` (stereo not drawn) stands 16.3%; under `CCOC(=O)c1c(C)nc2cc(C)cc(C)n12`, 10.4%; under `COc1cccc(C(C(=O)NC2CCCCC2)N(C(=O)c2ccccn2)c2cccnc2)c1` (stereo not drawn), -16.8%.
With `O=C(CNC(=O)c1[nH]cnc1C(=O)N[C@@H](Cc1ccccc1)C(=O)OCc1ccccc1)OCc1ccccc1`, the “hERG current change (%, negative = inhibition) at 10uM” value is on record as 7.48%.
Under `CC(C)c1ccc(NC(=O)CCN2C(=O)[C@@H]3Cc4ccccc4CN3C2=O)cc1` stands 4.7%.
With `O=C(NC1CCCCCC1)C1CCN(C(=O)c2cccc(Cl)c2)CC1`, the “hERG current change (%, negative = inhibition) at 10uM” value was -6.56%.
Turning to `CCCN1Cc2cccc(C(=O)NC(CC(=O)OCC)c3ccc(C)cc3)c2C1=O` (stereo not drawn), the “hERG current change (%, negative = inhibition) at 10uM” value is -81.7%.
With `COCCN(C(=O)CSc1nnc(-c2cccc(F)c2)n1N)c1c(N)n(Cc2ccccc2)c(=O)[nH]c1=O`, the “hERG current change (%, negative = inhibition) at 10uM” value is 0.307%.
`O=C(NC1CCCCC1)C(c1ccc(Cl)cc1)N(C(=O)c1ccccn1)c1cccnc1` (stereo not drawn): the “hERG current change (%, negative = inhibition) at 10uM” value stood at 31%.
For the molecule `C#CCOCCOCCOCCNc1nc(N2CCN(C(=O)C(CCC(=O)O)n3cc(C(N)CC(C)C)nn3)CC2)nc(N2CCN(C(=O)C(Cc3cc4ccccc4[nH]3)n3cc(C(N)Cc4ccc(O)cc4)nn3)CC2)n1.Cl` (stereo not drawn), the “hERG current change (%, negative = inhibition) at 10uM” value is -2.51%.
To `COc1cccc(OCC(=O)Nc2ccc(OC)c(OC)c2)c1` belongs 1.76%.
Under `Cc1ccc(N(C(=O)C2CCCO2)C2C=CS(=O)(=O)C2)cc1Cl` (stereo not drawn) stands -4.44%; under `CSC1=NCCN1C(=O)c1ccc(C)cc1`, 4.27%; under `COc1ccc(N(C(=O)c2cccnc2)S(=O)(=O)c2cc(OC)ccc2OC)cc1`, -21.8%.
To `COc1ccccc1C(=O)N/N=C(\C)CC(=O)Nc1ccc(Cl)cn1` belongs -22.2%.
For the molecule `CCc1ccc2c(c1)C(c1ccc([N+](=O)[O-])cc1)=NNC(c1ccccc1)=N2`, the “hERG current change (%, negative = inhibition) at 10uM” value is -23.2%.
As for `COc1ccc(-c2ccc(CO)o2)cc1N`, the “hERG current change (%, negative = inhibition) at 10uM” value is 27.7%.
To `COc1ccccc1OCc1nc(C#N)c(N2CCC(C(N)=O)CC2)o1` belongs -26.2%; to `COc1ccc([C@H]2CC(=O)C=C(c3cc(F)ccc3OC)C2)cc1`, 2.84%; to `CCN(CC(=O)Nc1c(F)cccc1F)C(=O)c1ccc(COc2ccccc2)cc1`, -10.9%.
